# Test results published in PubChem BioAssay AID686979 (National Center for Advancing Translational Sciences (NCATS), 2013).
# Among all 420,000 compounds or so, about 50,000 (12%) were called active. The shares of active, inactive and inconclusive entries below differ from those in the screen. Calls follow the shape of the dose curve; as a rule, active = well fitted inhibition curve with a large enough effect; inconclusive = small, poorly fitted or top-dose-only effect; inactive = flat fitted curve, though single readings scatter. No potency is given beside an inconclusive call; the fits are too rough.
# Experiment: qHTS for Inhibitors of human tyrosyl-DNA phosphodiesterase 1 (TDP1): qHTS in cells in presence of CPT; also: nearly all actives have a fitted effect of over 55% in size
# Details: chicken DT40 Tdp1-/-;hTDP1 cells + 20 nM CPT, ATP luminescence, 48 h; activity change, negative = growth inhibition: at 46.2 µM (top of the series)
# How it was run: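 Cell growth measured by CellTiter-Glo luminescence after a minimum 48 h, 37 C compound exposure with 20 nM CPT in Tdp1-knockout DT40 cells stably expressing hTDP1, seeded 400/well; qHTS titration format.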
# % is scaled to controls: 0 for no effect and ±100 for the full control effect; potency is read from the fitted curve at half-maximal effect; tags tell the direction and shape of the fitted curve.
Compound,Potency,"activity change, negative = growth inhibition"
Cc1ccc(Cn2c(C(=O)O)c(CNC3CCCC3)c3ccc(C)cc32)cc1,"inconclusive [inhibitor, single point]",–
O=C(COC(=O)/C=C/c1ccccc1)Nc1nnc(-c2ccccc2)o1,–,inconclusive: -7.46% [inhibitor]
CC(C)N(CCCNC(=O)Cn1c(=O)c2cccn2c2ccccc21)Cc1ccccc1,active: 18.4 µM,–
CCCCN1CC(N2CCN(Cc3cccc(C)c3)CC2)CS1(=O)=O (stereo unspecified),"inconclusive [inhibitor, single point]",–
COc1cc(-c2nnc(NC(=O)CS(=O)(=O)c3ccc(C)cc3)o2)cc(OC)c1OC,inactive,–
CCOC(=O)N1CCC(NC(=O)c2cc3cc4cc(OC)ccc4nc3o2)CC1,"inconclusive [inhibitor, single point]",–
O=C(C1=C[C@H](c2ccc(Br)cc2)C[C@H](OCCCCO)O1)N1CCN(Cc2ccc3c(c2)OCO3)CC1,active: 18.4 µM,–
CN(C)c1ccc(N2C(=NC(=O)CC3CCCCC3)SC3CS(=O)(=O)CC32)cc1 (stereo unspecified),inactive,–
COc1ccc(C)cc1NC(=O)C(Cc1ccccc1)NS(=O)(=O)c1cccs1 (stereo unspecified),active: 18.4 µM,–
O=C(Nc1ccccc1C(F)(F)F)N1CCC(CN2CCc3ccccc3C2)CC1,"inconclusive [inhibitor, single point]",–
CCc1cc(C(=O)O)c(NC(=O)C(c2ccccc2)c2ccccc2)s1,"inconclusive [inhibitor, single point]",–
Cc1cc(C)cc(-n2c(SCC(N)=O)nc3c([nH]c4ccccc43)c2=O)c1,"inconclusive [inhibitor, single point]",–
O=C(CCCOc1ccc(Br)cc1)Nc1ccc(S(=O)(=O)N2CCOCC2)cc1,"inconclusive [inhibitor, single point]",–
Nc1ncnc2c1ncn2C1CCCC(CO)O1 (stereo unspecified),inactive,–
O=C(CC1(O)C(=O)N(C/C=C/c2ccccc2)c2ccccc21)c1ccccn1 (stereo unspecified),active: 1.26 µM,–
CCN(CC(=O)Nc1ccccc1OC)C(=O)CSCc1c(C)noc1C,inactive,–
COCCNC(=S)NN=C1CCC(c2ccccc2)CC1 (stereo unspecified),"inconclusive [inhibitor, single point]",–
CCOC(=O)c1ccc(CN(Cc2ccccc2C)S(=O)(=O)c2ccc(F)c(C)c2)cc1,"inconclusive [inhibitor, single point]",–
COc1cccc(/C=C(\C(=O)O)c2ccccc2)c1,inactive,–
CC1Cc2c([nH]c(=O)n(-c3ccccc3)c2=O)O1 (stereo unspecified),inactive,–
O=c1cc(-c2ccccc2)oc2ccc(O)cc12,"inconclusive [inhibitor, single point]",–
COc1ccc(-n2c(O)c(C=Nc3ccccc3)c3ccccc3c2=O)cc1,"inconclusive [inhibitor, partial curve]",–
Cc1ccc(S(=O)(=O)N(CCC(=O)NCc2ccccc2F)c2ccccc2)cc1,"inconclusive [inhibitor, single point]",–

Compound,Potency,"activity change, negative = growth inhibition"
CC1CCCC(C)N1C(=O)COc1ccc([N+](=O)[O-])cc1Cl (stereo unspecified),–,inconclusive: -32% [inhibitor]
CCCCN1C(=O)c2ccc(C(=O)NCCN3C(=O)S/C(=C\c4cccnc4)C3=O)cc2C1=O,"inconclusive [inhibitor, single point]",–
CN(C)c1ccc2c(=O)[nH][nH]c(=O)c2c1,inactive,–
Cc1ccc2nc(-c3cccc(NC(=O)c4cccc5ccccc45)c3)oc2c1,"inconclusive [inhibitor, single point]",–
COc1cc([N+](=O)[O-])ccc1NC(=O)CN(C)C,inactive,–
C[C@H](CO)N1C[C@H](C)[C@@H](CN(C)Cc2ccccc2C(=O)O)OCc2cnnn2CCCC1=O,inactive,–
CC1CCN(S(=O)(=O)c2ccc(C(=O)Nc3ncccc3O)cc2)CC1,"inconclusive [inhibitor, single point]",–
O=C(NNC(=O)c1ccccc1O)c1ccc(NS(=O)(=O)c2ccc(F)c(F)c2)cc1,"inconclusive [inhibitor, single point]",–
Cc1cccc(NS(=O)(=O)c2ccc(C3CCCCC3)cc2)c1,active: 20.6 µM,–
COc1ccc(Nc2ncnc3c2cnn3-c2ccc(C)cc2)cc1Cl,"inconclusive [inhibitor, single point]",–
COc1cccc(-c2c(-c3cc(OC)cc(OC)c3)n(C)c3ccc(-c4cccc5[nH]ccc45)cc23)c1,–,inconclusive: -33.9% [inhibitor]
Cc1nc(N2CCN(C(=O)c3ccco3)CC2)nc2c1C(=O)CCC2,"inconclusive [inhibitor, single point]",–
O=C(C1CC12CCN(Cc1cccc3cccnc13)CC2)N1CCN(Cc2cccs2)CC1 (stereo unspecified),active: 1.64 µM,–
Cc1ccc(S(=O)(=O)N2CCC(=O)N(CCOC(=O)Nc3cc(C)cc(C)c3)CC2)cc1,active: 16.4 µM,–
COc1ccc(NC(=S)SC)cc1OC,–,inconclusive: -30.8% [inhibitor]
Cc1cc([N+](=O)[O-])ccc1-c1ccc(/C=N/NC(=O)Cc2ccccc2)o1,"inconclusive [inhibitor, single point]",–
CCOc1ccc(-n2c(SCC(=O)NC3CCCCC3)nc3c([nH]c4ccccc43)c2=O)cc1,"inconclusive [inhibitor, single point]",–
CC(=O)Nc1cccc(C(=O)OCC(=O)c2ccc3c(c2)OCO3)c1,inactive,–
Cc1ccccc1N(C(=O)CNC(=O)c1ccco1)C(C(=O)NC1CCCCC1)c1ccncc1 (stereo unspecified),inactive,–
CN(C)C(=S)Nc1cccc(C(F)(F)F)c1,active: 25.9 µM,–
Cc1nn2c(C)c(C(=O)Nc3ccccc3)cnc2c1-c1ccccc1,"inconclusive [inhibitor, partial curve, poor fit]",–
Cc1cc(C)n(-c2cc(N3CCN(S(=O)(=O)c4ccc(Br)cc4)CC3)ccc2[N+](=O)[O-])n1,active: 11.6 µM,–
CCC1=NN(C(=O)C(=O)Nc2ccc(Br)cc2)C(O)(C(F)(F)F)C1 (stereo unspecified),inactive,–
